In all, about 310,000 compounds went through this assay and about 2,200 (0.71%) showed an effect of 50% or more. The effect is printed as a negative number. The list shows a part of the results.
biological target: human ether-à-go-go-related gene (hERG) potassium channel (human, UniProt Q12809); assay: primary screen, population patch clamp on CHO cells stably expressing hERG
Sequence (Q12809 whole entry, looked up): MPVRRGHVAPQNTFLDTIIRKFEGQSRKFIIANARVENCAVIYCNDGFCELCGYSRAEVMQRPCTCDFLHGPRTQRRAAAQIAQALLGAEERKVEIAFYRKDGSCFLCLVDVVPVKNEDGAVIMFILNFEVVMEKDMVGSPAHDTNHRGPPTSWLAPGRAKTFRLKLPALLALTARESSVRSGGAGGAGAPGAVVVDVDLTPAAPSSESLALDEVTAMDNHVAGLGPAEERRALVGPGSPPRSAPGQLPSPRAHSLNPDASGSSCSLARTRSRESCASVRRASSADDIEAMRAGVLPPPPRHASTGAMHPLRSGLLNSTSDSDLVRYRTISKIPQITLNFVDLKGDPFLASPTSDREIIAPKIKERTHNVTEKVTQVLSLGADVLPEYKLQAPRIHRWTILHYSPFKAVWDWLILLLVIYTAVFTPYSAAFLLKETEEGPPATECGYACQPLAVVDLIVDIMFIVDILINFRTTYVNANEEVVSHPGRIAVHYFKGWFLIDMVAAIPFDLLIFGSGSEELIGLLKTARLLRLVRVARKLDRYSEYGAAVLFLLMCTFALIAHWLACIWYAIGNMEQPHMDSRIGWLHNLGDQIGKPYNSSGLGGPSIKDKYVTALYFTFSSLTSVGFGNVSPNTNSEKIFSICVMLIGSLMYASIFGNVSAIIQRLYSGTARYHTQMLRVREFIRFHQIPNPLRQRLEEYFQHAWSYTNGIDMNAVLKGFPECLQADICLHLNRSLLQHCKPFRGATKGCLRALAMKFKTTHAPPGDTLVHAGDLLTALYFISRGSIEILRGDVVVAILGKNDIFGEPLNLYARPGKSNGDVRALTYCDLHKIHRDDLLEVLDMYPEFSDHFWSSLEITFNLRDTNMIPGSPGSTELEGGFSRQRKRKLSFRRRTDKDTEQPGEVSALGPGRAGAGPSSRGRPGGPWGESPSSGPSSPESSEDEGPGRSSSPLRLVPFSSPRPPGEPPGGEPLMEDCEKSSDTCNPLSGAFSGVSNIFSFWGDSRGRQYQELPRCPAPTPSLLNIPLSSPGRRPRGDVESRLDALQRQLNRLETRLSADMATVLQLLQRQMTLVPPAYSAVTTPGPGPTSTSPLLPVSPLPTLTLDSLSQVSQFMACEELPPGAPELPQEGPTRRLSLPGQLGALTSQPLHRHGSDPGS

SMILES | hERG current change (%, negative = inhibition) at 1uM [%]
CCOc1cc(C(c2c(C)[nH][nH]c2=O)c2c(C)[nH][nH]c2=O)cc(Cl)c1O | 13.9
Cc1nc(SCC(N)=O)[nH]c(=O)c1CCC(C)C | 3.67
CC(=O)N1CCOc2ccc(S(=O)(=O)NCC3CCC(C(=O)Nc4ccc(C)cn4)CC3)cc21 (stereo not drawn) | 3.17
NS(=O)(=O)c1ccc(CCNC(=O)c2cc3ccccc3oc2=O)cc1 | 11.2
CCC(=O)Nc1c(C#N)c2nc3ccccc3nc2n1C1CCCCC1 | 16.5
CCOC(=O)C1CCN(S(=O)(=O)c2c(Cl)ccc3nonc23)CC1 | 10.2
O=C(CNC(=O)c1ccco1)NC1CCCCCC1 | 4.18
CCn1c(SCC(=O)N/N=C/c2ccc(C)o2)nnc1-c1ccccc1 | 1.67
CCOC(=O)C(C)(C)N(Cc1ccccc1C)S(=O)(=O)c1ccc(Cl)c([N+](=O)[O-])c1 | 6.43
Cc1ccc(NC(=O)Cn2c(O)c(N=NC(=O)c3cc([N+](=O)[O-])ccc3O)c3ccccc32)cc1 | 5.03
COc1cccc(C(=O)Nc2c3c(nn2-c2ccc(Cl)cc2)CS(=O)(=O)C3)c1OC | -0.486
N#Cc1cccnc1N1CCN(C(=O)c2cccs2)CC1 | 7.29
O=C(CCCNC(=O)c1ccc(Cl)cc1)Nc1ccccc1C(F)(F)F | 0.224
COC(=O)c1nc(NC(=O)c2ccc(Cl)cc2)n[nH]1 | 14.1
COc1ccc(-c2cc(C(F)(F)F)nc(N3CCOCC3)n2)cc1 | 19.9
Cc1c(S(=O)(=O)Nc2ccc(Oc3ccccc3)cc2)c(=O)n(C)c(=O)n1C | 4.73
CC(=O)Nc1ccc(NC(=O)C2CC(=O)Nc3ncnn32)cc1 (stereo not drawn) | 7.74
O=C(NNC(=S)NC(=O)c1ccccc1[N+](=O)[O-])c1ccc(Cl)cc1Cl | 9.26
COc1ccc(NC(c2ccccc2)c2ccncc2)cc1.Cl (stereo not drawn) | 7.55
COc1cc(NC(=O)CSCc2ccc(Cl)cc2)c(C(=O)O)cc1OC | 13.7
c1ccc2c(c1)[nH]c1ccccc12 | -10.3
CNC(=S)N(Cc1cccs1)Cc1cc2cc(OC)ccc2[nH]c1=O | 0.76

SMILES | hERG current change (%, negative = inhibition) at 1uM [%]
CCN(CC)S(=O)(=O)c1ccc(C)c(NS(=O)(=O)c2cc(/C=C/C(=O)O)cc(OC)c2OC)c1 | 6.78
CC1CCCC(NC(=O)CNC(=S)N(Cc2ccccc2)Cc2cccs2)C1C (stereo not drawn) | 1.61
CC(=O)c1cccc(NC(=O)C2C3C=CC(C4CC34)C2C(=O)O)c1 (stereo not drawn) | -1.56
N#CC1=C(N)SC2(CCCCC2)SC1c1ccccc1 (stereo not drawn) | 8.41
O=C(/C=C/c1ccccc1)N1CCN(Cc2nc3ccccc3c(=O)[nH]2)CC1 | -37.4
CNc1nc2ccccc2n(C)c1=O | 4.93
O=C1CN(C(=O)CSc2nncs2)c2ccccc2N1 | 12.4
Cn1c(/C=C/c2ccc([N+](=O)[O-])o2)nc2ccccc2c1=O | -5.47
CCOc1ccc(NC(=O)CSc2nc(=O)n(CCN3CCOCC3)c3c2CCCC3)cc1 | 0.794
CCOC(=O)N1CCN(C(=O)CSc2nnc(-c3cccc(OC)c3)o2)CC1 | 3.14
COC(=O)N/N=C/c1cc(N=Nc2ccccc2Cl)ccc1O | 7.06
Cc1cc(C(F)(F)F)n2ncc(-c3ccccc3)c2n1 | 13.1
COc1ccc2c(c1)OC/C(=C/c1cccs1)C2=O | 5.83
O=C(CCn1c(=O)c2ccccc2n(CC(=O)NC2CCCC2)c1=O)NCc1ccco1 | 13.1
COc1ccc(OC)c(S(=O)(=O)N2CCCC(C)C2)c1 (stereo not drawn) | -18.4
COC(=O)C1C(O)=C(C=NC2CCCCC2)C(=O)CC1(C)C (stereo not drawn) | 6.42
Cc1ccc(NC(=S)NC(=O)c2cncc(Br)c2)c(C)c1 | 8.34
Cc1cccc(Nc2nc(N)nc(CN3CCC(C(N)=O)CC3)n2)c1C | 7.21
CSc1ccc(CCNC(=O)CCc2nnc3ccc(N4CCCCC4)nn23)cc1 | -10.4
[O-]C1=N/[N+](=C/c2ccc(Cl)cc2)CC1 | 2.23
C=CCn1c(=O)c2c(nc3n2CC(C)CN3CCc2ccccc2)n(C)c1=O (stereo not drawn) | -22.1
CCOC(=O)N1CCN(S(=O)(=O)N2CCCC(C(=O)NCCc3ccc(OC)c(OC)c3)C2)CC1 (stereo not drawn) | 10.8

SMILES | hERG current change (%, negative = inhibition) at 1uM [%]
CCn1nc(NC(=O)c2cccnc2)c2cc3ccccc3nc21 | 15.3
Cc1ccc(-n2c(SCC(=O)c3c(N)n(C)c(=O)n(C)c3=O)nc3sc4c(c3c2=O)CCCC4)c(C)c1 | 13
O=c1/c(=C\c2ccc(O)cc2)sc2nc(-c3ccccc3)c(-c3ccccc3)n12 | 14.4
CN(C)/C=C1\C(=O)N(c2ccc(Cl)c(Cl)c2)CS1(=O)=O | 10.8
CS(=O)(=O)c1ccc2nc(NC(=O)CN3C(=O)C4CC=CCC4C3=O)sc2c1 (stereo not drawn) | 4.39
COc1cccc(/C=N/n2c(SC)nnc2-c2ccccc2)c1OC | -15.2
C1CCC(Nc2nc3nonc3nc2N2CCSCC2)C1 | 6.28
c1ccc(NCn2cncn2)nc1 | 5.15
CC(C)(C)n1nc2c(c1NC(=O)c1ccccc1F)CS(=O)C2 (stereo not drawn) | 17
COC(=O)C[C@H]1c2cc(C(F)(F)F)ccc2S(=O)(=O)N1c1ccc(N(C)C)cc1 | -14.3
O=C(CCC(=O)N1CCN(c2ccccc2)CC1)Nc1nnc(C2CCCCC2)s1 | 11.2
Cn1nnnc1SCc1cccc(CSc2nnnn2C)n1 | 6.12
C=CCn1c(CNc2ccccc2)nnc1SCC(=O)N/N=C/c1ccc(O)cc1O | 6.52
CCOc1cc(C(=O)N2CCN(C/C=C/c3ccccc3)CC2)cc(OCC)c1OCC | -3.18
COc1cc(C(=O)OCC(=O)Nc2ccccc2C(=O)NC2CC2)c([N+](=O)[O-])cc1OC | 5.33
COc1ccccc1OCCn1c(CO)nc2ccccc21 | 10.9
Cc1ccc(NC(=O)COc2cccc(-n3cnnn3)c2)cc1S(=O)(=O)N1CCOCC1 | 7.14
CCN1CCN(C(c2cccs2)C(C)NC(=O)c2cccnc2)CC1 (stereo not drawn) | 14.4
O=C(CN1C(=O)COc2ccccc21)NCCN1CCc2ccccc2C1 | 8.74
COCCNC(=O)CCCCCn1c(=S)[nH]c2ccccc2c1=O | 8.16
O=C(OCc1c(Cl)cccc1Cl)c1cccnc1 | 5.84
O=C(COC(=O)c1ccc2c(c1)C(=O)N(CCc1ccccc1)C2=O)Nc1ccc(OC(F)F)cc1 | 12.1

SMILES | hERG current change (%, negative = inhibition) at 1uM [%]
CC(C)(C)c1ccc(C(=O)C2CCCN(C(=O)CN3CCCC3=O)C2)cc1 (stereo not drawn) | 3.61
COc1ccc(OC)c(NC(=O)c2cc(S(=O)(=O)NCc3ccco3)ccc2F)c1 | 13.1
O=C(CSc1nnc2ccccn12)NCc1ccc2c(c1)OCO2 | 10.2
COc1ccc(NC(=O)/C(C#N)=C\c2ccc(-c3cccc(C(=O)O)c3C)o2)cc1 | 1.64
Cc1n[nH]c(=O)c2c(NC(=O)COC(=O)c3ncc(Cl)c(Cl)c3Cl)oc(C)c12 | 12.8
O=C(CN1CCN(c2ccc(F)cc2)CC1)N(C1CCCC1)C1CCS(=O)(=O)C1 (stereo not drawn) | -9.75
Cc1cc(C)n(C(C)CNC(=O)c2ccc3c(c2)OCO3)n1 (stereo not drawn) | 16.5
C#Cc1ccc(CN2CCCC(C(=O)Nc3ccccc3Oc3cccnc3)C2)cc1 (stereo not drawn) | -7.65
O=C(N[C@@H](c1ccccc1)[C@@H]1C[C@H]1C(=O)NCc1ccccn1)OCc1ccccc1 | 1.59
CCOc1ccc2nc(C)cc(Nc3cccc([N+](=O)[O-])c3)c2c1.Cl | 1.88
COc1ccc(NC(=S)N(CCc2c(C)[nH]c3ccc(C)cc23)Cc2ccco2)cc1 | 6.5
CCN(CCNC(=O)CN(C)S(=O)(=O)c1cccc2nsnc12)c1ccccc1 | -9.91
CCOC(=O)c1c(C)[nH]c(C(=O)C(C)Cl)c1C (stereo not drawn) | 7.99
CC(C)Cc1cc(CN2CCC(CO)(Cc3ccccc3)CC2)[nH]n1 | -42.9
O=C(CNCC1CCCCC1)Nc1ccccc1N1CCCCC1.O=C(O)C(=O)O | 4.57
O=C(CCNC(=O)C1CCN(S(=O)(=O)c2ccc(F)cc2)CC1)NCc1ccc(Cl)cc1 | 19.5
COC(=O)C1=C(C)N(CCCC(=O)O)C(=O)NC1c1cccc2ccccc12 (stereo not drawn) | 12.7
O=C(O)c1ccccc1COc1ccccc1Cl | 10.3
N/C(=N\OC(=O)Cc1cccs1)c1ccc(Br)cc1 | 10
CCN(C(=S)Nc1ccc(Oc2ccccc2)cc1)c1ccccc1 | 21.1
CC(C)C1O/C(=N/C(=O)Nc2ccc(Cl)c(Cl)c2)NC1=O (stereo not drawn) | 3.43
